Measurements reported in article PMC10726135.
This is one part of the list. At the low end of the ranking the order means little. The protein was read in a cell extract, so binding may be indirect.

Biological target: T1, HNF4alpha8 (COS-7 nuclear extract) (UniProt P41235-5)
T1 sequence: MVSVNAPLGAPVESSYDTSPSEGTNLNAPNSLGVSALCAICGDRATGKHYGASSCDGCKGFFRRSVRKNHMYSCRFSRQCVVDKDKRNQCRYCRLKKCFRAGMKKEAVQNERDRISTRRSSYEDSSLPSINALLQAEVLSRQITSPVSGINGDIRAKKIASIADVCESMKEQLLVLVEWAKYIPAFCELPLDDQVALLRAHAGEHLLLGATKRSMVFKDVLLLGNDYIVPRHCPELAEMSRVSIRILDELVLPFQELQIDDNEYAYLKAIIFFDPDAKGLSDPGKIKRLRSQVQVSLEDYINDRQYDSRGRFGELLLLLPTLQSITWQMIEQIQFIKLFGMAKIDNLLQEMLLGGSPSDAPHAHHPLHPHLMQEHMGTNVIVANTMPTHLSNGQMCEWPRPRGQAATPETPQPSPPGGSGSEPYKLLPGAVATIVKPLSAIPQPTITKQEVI
Test: protein-binding microarray
Conditions: COS-7 nuclear extract on double-stranded Agilent 4x180k PBM; binding buffer, salt, pH and temperature not given; high values mean tight binding; double strand, one strand shown; sequences stand for … in …GCCTAGGGAGATTAGAGTATCGGTCGA

Q: With CTTTACCACCCTCACAGCTCAATCCAACAA as the sequence, how does the binding signal (log2 normalized intensity) read?
A: -1.29

Q: AGAAGGGGACAAGCACATTAGGAGGAAAAA was tested. Which binding signal (log2 normalized intensity) did it give?
A: -1.3

Q: With CAACAACACAGATCATATCATTTATTTGCT as the sequence, how does the binding signal (log2 normalized intensity) read?
A: -1.21

Q: With CCTCTGTTGCTTCAAAGGGCAAAAGGGCAA as the sequence, how does the binding signal (log2 normalized intensity) read?
A: 5.69

Q: How did the binding signal (log2 normalized intensity) turn out when ACTTGCGGGCGGGGGGTGGGGTGGAAGCTA was run?
A: -1.22

Q: With CCTCCCCCTGGGGACAGGTGTTAATGTCTA as the sequence, how does the binding signal (log2 normalized intensity) read?
A: 2.19

Q: How did the binding signal (log2 normalized intensity) turn out when TGTGGTGTTCGCTAAGATGTAGCAAGAATG was run?
A: 0.683

Q: Which binding signal (log2 normalized intensity) does the source give for ACGTTCACGTCTCAAGCTTCAGGAGTCCAC here?
A: 2.71

Q: How did the binding signal (log2 normalized intensity) turn out when CCTGCAACAGCCCCATGAGATAGGTACTAT was run?
A: 0.633

Q: For CCAATGTGGAGCTGCTGAACTATTGAACCA, which binding signal (log2 normalized intensity) is on record?
A: 3.36

Q: Which binding signal (log2 normalized intensity) does the source give for AAACGGATGCAAAGGCTGAGCCCTTATCTT here?
A: -1.35

Q: Which binding signal (log2 normalized intensity) does the source give for AGTTGTTCAAAGTCCATGTGTTAAATAATA here?
A: 4.23

Q: How did the binding signal (log2 normalized intensity) turn out when TAGAATGGAACTGAAGGCAGGAAAGGGCCT was run?
A: -1.31

Q: CCTGTGTGCATGGAGTGCACTGTGATCTTT was tested. Which binding signal (log2 normalized intensity) did it give?
A: 3.87

Q: Which binding signal (log2 normalized intensity) does the source give for ACAGGTTGGAGACGCAGAGAAGCACTGCAG here?
A: -1.29

Q: With TGAAGACACTGAGGAAAAGCTGTCTACAAA as the sequence, how does the binding signal (log2 normalized intensity) read?
A: -1.26

Q: How did the binding signal (log2 normalized intensity) turn out when GGAATTCTCTTCCCAACAGGAGATTACTTC was run?
A: -0.194

Q: With CTGGTGGACTTTGCTCTGCTCATTTTTCCC as the sequence, how does the binding signal (log2 normalized intensity) read?
A: 5.77

Q: Which binding signal (log2 normalized intensity) does the source give for TGGTAAGCAGACCCCTACTGGGGATGGACT here?
A: 2.46

Q: Which binding signal (log2 normalized intensity) does the source give for TCTTGGGTCAAAGTCTCTGGTACAAAATTA here?
A: 2.89

Q: How did the binding signal (log2 normalized intensity) turn out when AGGTCGCAAGCACTGGCTCTGGGGTCAAAG was run?
A: 4.08

Q: How did the binding signal (log2 normalized intensity) turn out when AGTCCAGAACCTGGAACCTAGAGGCCTTTC was run?
A: -1.26

Q: Which binding signal (log2 normalized intensity) does the source give for TGCAATTCTCTTTGCCAAAGCATAGCAAGA here?
A: -1.48

Q: For TTCTAAAGAACATTCCAGCTTTGAAGTGCT, which binding signal (log2 normalized intensity) is on record?
A: -1.27

Q: TCTGCAGCAGATGGCCAGCCTTTGGACTTT was tested. Which binding signal (log2 normalized intensity) did it give?
A: 8.08

Q: AGTAGCTCACAAATACTCACCCTTGGATTA was tested. Which binding signal (log2 normalized intensity) did it give?
A: 0.978

Q: With CTGATCAAAGGTCATTGGTATTGATAGCGC as the sequence, how does the binding signal (log2 normalized intensity) read?
A: 5.24

Q: CCAAGGCTGAAGGTCTCGAGGCCTCTTTAT was tested. Which binding signal (log2 normalized intensity) did it give?
A: -0.0513

Q: Which binding signal (log2 normalized intensity) does the source give for TACTTGAACCCTACTCATAATTGCTATGTC here?
A: 1.15

Q: With AAAAACAACTAAAGGAATGCGCCTGAACTG as the sequence, how does the binding signal (log2 normalized intensity) read?
A: -1.32

Q: With CATTCCACAGCAGAGGAGCCCTGGGCTCAG as the sequence, how does the binding signal (log2 normalized intensity) read?
A: -1.22

Q: ATCGCCTAGTACTCCTGCCCCTGTGCAATA was tested. Which binding signal (log2 normalized intensity) did it give?
A: 3.01

Q: Which binding signal (log2 normalized intensity) does the source give for CAGGTGTAACAGTTGCAGCTTCAGGAGCTG here?
A: -1.3

Q: Which binding signal (log2 normalized intensity) does the source give for TGTATACTTATGTAGAAAGATATCTCTGTG here?
A: 1.3

Q: How did the binding signal (log2 normalized intensity) turn out when AGGGAGACAAAGTGTCACAAACTATCAGTG was run?
A: -1.35

Q: With GGCAATTGATAATGATGTTTACATTCCAGA as the sequence, how does the binding signal (log2 normalized intensity) read?
A: 1.15

Q: How did the binding signal (log2 normalized intensity) turn out when GAGGTACCTAGGGGACATTCTTTAGAGGCT was run?
A: -1.3

Q: How did the binding signal (log2 normalized intensity) turn out when ATTACATCCAGAGTGGGACAAAGTTCCCCG was run?
A: 1.91

Q: With TTGGTTTCCTACGGCTGCTGTAACAAGTGG as the sequence, how does the binding signal (log2 normalized intensity) read?
A: 0.83

Q: Which binding signal (log2 normalized intensity) does the source give for TACAAAGTTCACTTTCTTGTTTACTCACCT here?
A: 1.78

Q: Which binding signal (log2 normalized intensity) does the source give for CTTTTTGACCTTGCAGTGGCAAGGCAAAAG here?
A: 2.28

Q: Which binding signal (log2 normalized intensity) does the source give for GAGAATCCACCTGCCTGCTTGGCCTCTCCA here?
A: -1.28

Q: How did the binding signal (log2 normalized intensity) turn out when TTTCACAAGTTTAGCCAAGCAAACAAGTTC was run?
A: -1.38

Q: For TGAATGGACTCTGCCCTTAGCAGTGGGAGA, which binding signal (log2 normalized intensity) is on record?
A: 4.92

Q: TCTGCCGCTGCGCCACAGCACCACCTGCTG was tested. Which binding signal (log2 normalized intensity) did it give?
A: -1.27

Q: TTAGTCCCAGTATGGTCTCAGTAATGACAT was tested. Which binding signal (log2 normalized intensity) did it give?
A: 1.06

Q: With AAAGCAACAAAAACCAAATCACAATTTTCA as the sequence, how does the binding signal (log2 normalized intensity) read?
A: -1.43

Q: For CTTACATGGGTTAGGAGGATGACAAAGAGC, which binding signal (log2 normalized intensity) is on record?
A: -0.166

Q: How did the binding signal (log2 normalized intensity) turn out when ATGAAGATATATTCCTTCAGGAAGGCCTGT was run?
A: 0.756

Q: Which binding signal (log2 normalized intensity) does the source give for GTATGTTCTTAAGATAAGGACTGTTGGACC here?
A: 4.24

Q: How did the binding signal (log2 normalized intensity) turn out when TTTTTGTGTGTGTGTCAGAGACCCAGAAAA was run?
A: 1.54

Q: With TGGCTAATAGATGGCGCAGCGGGTCAATTA as the sequence, how does the binding signal (log2 normalized intensity) read?
A: 2.6

Q: With AGCTGGGCCTGTGCTGGGGACAAAAGCTGA as the sequence, how does the binding signal (log2 normalized intensity) read?
A: -1.18

Q: How did the binding signal (log2 normalized intensity) turn out when AAGTTAACTTTGTAACTAACAACTGACCTT was run?
A: 4.32

Q: For ATAAGCCCTGAGTAGTTCTTCTGGTTAGTT, which binding signal (log2 normalized intensity) is on record?
A: 0.74

Q: Which binding signal (log2 normalized intensity) does the source give for CAAACCAAAGAGAAATGGTGTGGACAGCAG here?
A: -1.31

Q: How did the binding signal (log2 normalized intensity) turn out when TGTTAGCAGAAACCATCTGGCTTGGCCCCC was run?
A: 4.14

Q: Which binding signal (log2 normalized intensity) does the source give for GGTAGCCTGGGTTAAAGTCCGTTACAGACA here?
A: 4.18

Q: How did the binding signal (log2 normalized intensity) turn out when GTGGGGCAGAAAGGGCATGGATTTAGATAA was run?
A: -0.823

Q: How did the binding signal (log2 normalized intensity) turn out when TACATAGAGGGGGTCTAGGTTGGAGGAGCT was run?
A: -0.892

Q: ATGGGCACCTCGTCCAGGTGTCTTCAGGCT was tested. Which binding signal (log2 normalized intensity) did it give?
A: -1.31

Q: How did the binding signal (log2 normalized intensity) turn out when AGTGGAAGGTATGGAGCTAAACAATTAAAG was run?
A: -1.29

Q: For AATTGTGGCTTGTGTAGTTATCCAGTAACA, which binding signal (log2 normalized intensity) is on record?
A: 0.907

Q: AGGCAGGAGTTAACTAACAAAAGCAGAGGA was tested. Which binding signal (log2 normalized intensity) did it give?
A: -1.37

Q: Which binding signal (log2 normalized intensity) does the source give for ACTCCTCTATCAGTACAAATAAACCTTTGA here?
A: 4.33

Q: TGTCCCCCAGGTCCAGCCTTTGGGCAGGGG was tested. Which binding signal (log2 normalized intensity) did it give?
A: 2.55

Q: Which binding signal (log2 normalized intensity) does the source give for GCTGCCTCCTATCCTCTGATCCCCAGGTCA here?
A: 2.87

Q: TGTCATCTCTGGCTAACAGGTCAGGGGCTC was tested. Which binding signal (log2 normalized intensity) did it give?
A: 0.515

Q: How did the binding signal (log2 normalized intensity) turn out when ACTCAGTGGGGTGTCTGTGTGCCTCAGATT was run?
A: 1.01

Q: TGAACCTTCTTCTTGCAGTCCACATTTCTG was tested. Which binding signal (log2 normalized intensity) did it give?
A: 1.16

Q: Which binding signal (log2 normalized intensity) does the source give for GGTGGACTTTGTAGCTCAAACAGTCTAAAA here?
A: 2.85

Q: With ATAAGAACGCTAGACACTGGGGACTAGTAG as the sequence, how does the binding signal (log2 normalized intensity) read?
A: -1.19

Q: Which binding signal (log2 normalized intensity) does the source give for CTTGGCCCCCGGACCCAAAGTAAACAAAGA here?
A: 3.96

Q: With TCAGTGCAATCACGCCTCAAATGAGCTTTT as the sequence, how does the binding signal (log2 normalized intensity) read?
A: -0.634

Q: Which binding signal (log2 normalized intensity) does the source give for GCCTTGCTGCGGATCAAAGGAGCTGGGCCT here?
A: -1.33

Q: With GTTAAGTCATTGATGAAACTCCTTCCCTTT as the sequence, how does the binding signal (log2 normalized intensity) read?
A: 0.746

Q: How did the binding signal (log2 normalized intensity) turn out when CCCACATCCTGTCAGACCAAGGCTGCTTAA was run?
A: -1.29

Q: GTAAACATAGCAGAAGACCCTTGGCCTCTA was tested. Which binding signal (log2 normalized intensity) did it give?
A: 4.15

Q: GGGCTGGCTCAGGACAGGTGAGCCCGGCAG was tested. Which binding signal (log2 normalized intensity) did it give?
A: -1.22

Q: Which binding signal (log2 normalized intensity) does the source give for TACTTCCTTCACTCTGGGGCAATAACCCTA here?
A: 0.964

Q: Which binding signal (log2 normalized intensity) does the source give for GCTCAAAATAGGCAAGACTGCCACCTACTG here?
A: -1.44

Q: For CATCTGAGACTAACTGCATTTTGGAGATAA, which binding signal (log2 normalized intensity) is on record?
A: -0.198

Q: Which binding signal (log2 normalized intensity) does the source give for AAAGTGGAAGAATGGGAAATTCCATCCTAG here?
A: -1.24

Q: How did the binding signal (log2 normalized intensity) turn out when TCAAAATATAAGGTCCAACTGACATCTGGA was run?
A: 1.18

Q: GCTTTAAGAGGAATGCTTTGAGCCAGAATC was tested. Which binding signal (log2 normalized intensity) did it give?
A: -1.07

Q: With TTGAGTGACCTTGGGCCAGTCGCTTAACCT as the sequence, how does the binding signal (log2 normalized intensity) read?
A: 2.28

Q: Which binding signal (log2 normalized intensity) does the source give for CTCTCGTCACCTCCACCCACCCGTGCATCA here?
A: 4.48

Q: Which binding signal (log2 normalized intensity) does the source give for GTACTTCAACCAGGTTCTCTTTACTGAACG here?
A: 1.54

Q: With TGCAGTGTGTCTCCAGGAGCAATCATCGCA as the sequence, how does the binding signal (log2 normalized intensity) read?
A: -1.11

Q: Which binding signal (log2 normalized intensity) does the source give for TTCTGAGTTGCATGAATTTATCTAAGTAGA here?
A: -0.142

Q: GCAGGAATGCTGAACAATTGATTTATAGCC was tested. Which binding signal (log2 normalized intensity) did it give?
A: -0.997

Q: Which binding signal (log2 normalized intensity) does the source give for CCCGTGTAGACACTCATCCCTTGCACTGCT here?
A: -1.08

Q: How did the binding signal (log2 normalized intensity) turn out when TCGGAATGTCTGGGCAAAGGGGAGGTTATC was run?
A: -0.858
